Measured values reported in the supplement of paper PMC4604168 (melanoma cell lines).
The other results are listed elsewhere or left out. Single values are uncertain, as repeats are few or missing.

What follows are compounds tested on COLO829 (assay: cell count relative to DMSO control; melanoma cells; higher = more viable cells). Conditions: library dose: low library concentration; 72 h.
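Note: cell number obtained by counting DAPI-stained nuclei in high-throughput microscope images with image analysis software, screen run in 1,536-well plates.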

Compound | cell count [%]
O=S(=O)(c1ccccc1)N(CC(F)(F)F)c1ccc(C(O)(C(F)(F)F)C(F)(F)F)cc1 + CC(C)CCN1c2nc(Nc3cc(F)c(O)c(F)c3)ncc2N(C)C(=O)C1C [BID1870] (first compound 1.4 µM, partner dose 0.2 µM) | 87.8
N#Cc1c(O)c2c(-c3ccc(-c4ccccc4O)cc3)csc2[nH]c1=O + Oc1nc(-c2ccc(C(F)(F)F)cc2)nc2c1CSCC2 [XAV939] (first compound 2 µM, partner dose 2 µM) | 109
N#Cc1c(O)c2c(-c3ccc(-c4ccccc4O)cc3)csc2[nH]c1=O + CCN(CC)CCCCNc1ncc2cc(-c3cc(OC)cc(OC)c3)c(NC(=O)NC(C)(C)C)nc2n1 [PD173074] (first compound 2 µM, partner dose 0.1 µM) | 111
COc1ccc2c(c1)CCC1C2CCC2(C)C(NCCCCCCN3C(=O)C=CC3=O)CCC12 (stereo unspecified) + O=C1NC(=O)/C(=C/c2ccc(-c3ccc(F)cc3O)o2)S1 [AS252424] (first compound 0.4 µM, partner dose 1 µM) | 103
COc1ccc(COc2ccc(Cc3cnc(N)nc3N)cc2OC)cc1 + Cn1cc(/C=C2\C(=O)Nc3cccnc32)c2ccccc21 [GW441756] (first compound 1 µM, partner dose 0.4 µM) | 93.6
Oc1cc(-c2nc(-c3ccccc3)[nH]c2-c2ccncc2)ccc1Cl + CCCCCCCCCCCC1=C(O)C(=O)C=C(O)C1=O [Embelin] (first compound 0.2 µM, partner dose 1.2 µM) | 114
